# Measured values reported in publication PMC4336329 (PLoS ONE, 2015).
# In all, about 310,000 compounds went through this assay and about 2,200 (0.71%) showed an effect of 50% or more. Effects have a minus sign here. Some of the results follow. Where a SMILES comes first, the peptide text is derived from it. The star is where a group is joined. Cbz = O=C(OCc1ccccc1)*
# Molecular target: human ether-à-go-go-related gene (hERG) potassium channel (human, UniProt Q12809)
# Assay: primary screen, population patch clamp on CHO cells stably expressing hERG
# human ether-à-go-go-related gene (hERG) potassium channel, sequence (Q12809 whole entry, looked up): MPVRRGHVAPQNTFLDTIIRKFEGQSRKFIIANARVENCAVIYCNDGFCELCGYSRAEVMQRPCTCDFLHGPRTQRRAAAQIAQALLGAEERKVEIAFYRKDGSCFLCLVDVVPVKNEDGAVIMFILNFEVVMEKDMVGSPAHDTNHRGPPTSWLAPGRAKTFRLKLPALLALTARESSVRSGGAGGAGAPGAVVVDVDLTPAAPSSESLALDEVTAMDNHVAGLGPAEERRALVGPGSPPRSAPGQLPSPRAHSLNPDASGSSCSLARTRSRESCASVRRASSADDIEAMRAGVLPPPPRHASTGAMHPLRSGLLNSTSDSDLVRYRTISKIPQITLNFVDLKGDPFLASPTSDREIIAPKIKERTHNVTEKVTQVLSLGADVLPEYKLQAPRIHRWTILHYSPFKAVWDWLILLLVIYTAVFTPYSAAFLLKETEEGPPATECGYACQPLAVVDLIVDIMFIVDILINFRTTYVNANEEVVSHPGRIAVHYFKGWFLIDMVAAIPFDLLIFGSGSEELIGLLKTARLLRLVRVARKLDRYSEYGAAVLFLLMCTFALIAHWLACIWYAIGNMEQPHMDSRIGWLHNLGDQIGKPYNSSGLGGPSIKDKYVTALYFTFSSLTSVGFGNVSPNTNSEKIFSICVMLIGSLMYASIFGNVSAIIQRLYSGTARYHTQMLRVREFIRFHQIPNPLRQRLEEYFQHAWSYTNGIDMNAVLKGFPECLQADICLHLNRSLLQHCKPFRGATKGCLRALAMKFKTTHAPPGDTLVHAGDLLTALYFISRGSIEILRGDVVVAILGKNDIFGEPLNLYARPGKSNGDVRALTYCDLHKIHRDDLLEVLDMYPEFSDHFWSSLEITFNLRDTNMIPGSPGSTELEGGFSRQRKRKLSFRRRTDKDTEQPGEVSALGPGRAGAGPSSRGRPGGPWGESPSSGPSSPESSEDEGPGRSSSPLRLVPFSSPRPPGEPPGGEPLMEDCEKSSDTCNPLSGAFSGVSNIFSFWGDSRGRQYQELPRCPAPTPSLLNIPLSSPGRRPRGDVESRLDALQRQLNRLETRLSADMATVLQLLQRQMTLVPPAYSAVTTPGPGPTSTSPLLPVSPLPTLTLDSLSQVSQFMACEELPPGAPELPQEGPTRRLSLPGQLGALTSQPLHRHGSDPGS
row,Structure (SMILES),"hERG current change (%, negative = inhibition) at 1uM"
1,CCC(C)N(C(=O)COC(=O)CNC(=O)c1ccccc1F)C1CCS(=O)(=O)C1 (stereo not drawn),4.27%
2,c1ccc(-c2cn3cccnc3n2)cc1,12.4%
3,COc1ccc(-n2nnnc2CNC(=O)c2ccc3c(c2)OCO3)cc1,14.1%
4,COc1ccc2c(C)cc(C)nc2n1,5.1%
5,O=C(O)c1cc(N2C(=O)C3C4C=CC(C4)C3C2=O)ccc1NCc1cccnc1 (stereo not drawn),8.78%
6,COC(=O)c1ccccc1C(=O)N1CCC(CCC(=O)NC2CC2)CC1,13.2%
7,CN(C(=O)CN1C(=O)/C(=C/c2ccccc2F)SC1=S)C1CCS(=O)(=O)C1 (stereo not drawn),22.6%
8,CCOc1ccc(N(C)S(=O)(=O)c2ccc(C)c(C(=O)NCc3ccccc3OC)c2)cc1,4.67%
9,CCCCNC(C(=O)Nc1cccc(S(=O)(=O)N2CCOCC2)c1)c1ccccc1 (stereo not drawn),-4.85%
10,COc1ccc(S(=O)(=O)Nc2ncccc2C)c2ccccc12,14.6%
11,Cc1ccc(S(=O)(=O)NCC(=O)N(CC(=O)NCC2CCCO2)c2cccc(F)c2)cc1 (stereo not drawn),11.9%
12,O=C(COc1ccc(Br)cc1Br)NC(=S)N1CCCc2ccccc21,6.53%
13,CCC1(C)Cc2c(sc3nc(SC)n(Cc4ccccc4)c(=O)c23)CO1 (stereo not drawn),8.55%
14,COc1ccc(C(=O)CSc2nnc(-c3cccnc3)n2Cc2ccco2)cc1,1.92%
15,CC(=O)Nc1ccc(NC(=O)c2ccc(C)c(S(=O)(=O)Nc3cccc(C)c3)c2)cc1,6.13%
16,COc1cccc(C(=O)N2CCn3c2nc2ccccc23)c1,1.36%
17,COC(=O)c1[nH]c2ccccc2c1Sc1ccccc1,12.7%
18,O=C(Nc1cccc2c1CCCC2)c1ccccc1F,18.1%
19,COc1ncnc2c1oc1nc(CC(C)C)c3c(c12)CC(C)(C)OC3,-10.6%
20,O=C(CCN1CCOCC1)Nc1cccc(Br)c1,11.9%
21,CCN(C1CCCCC1)S(=O)(=O)CCNC(=O)c1ccc2c(c1)OCO2,15.2%
22,COc1cc(C(CCN2CCCCC2)c2c(OC)cc(OC)c3c(-c4ccccc4)cc(=O)oc23)cc(OC)c1OC (stereo not drawn),-12%

row,Structure (SMILES),"hERG current change (%, negative = inhibition) at 1uM"
1,Cn1c(SCC(=O)NC2CC2)nnc1-c1ccccc1,6.86%
2,COc1cccc(-c2noc(C3CCCN(C(=O)c4ccc(F)cc4F)C3)n2)c1 (stereo not drawn),-24.5%
3,CCOc1cc(C)c(S(=O)(=O)N2CCCCC2)cc1C,12.2%
4,CSc1ccc(CN2CCC(n3nccc3NC(=O)C3CCOC3)CC2)cc1 (stereo not drawn),-22.8%
5,O=C(NC(=S)Nc1ccccc1N1CCOCC1)c1ccccc1F,13.9%
6,Cc1ccc(-c2nc(SCC(=O)NCC3CCCO3)c(-c3ccccc3)[nH]2)cc1 (stereo not drawn),6.98%
7,COC(=O)c1ccc(OC(=O)/C=C/c2ccco2)cc1,15.9%
8,OC1(c2cccs2)CN(c2ccc(Br)cc2)C2=[N+]1CCCS2.[Br-] (stereo not drawn),-39.5%
9,CC(=O)c1c(C)[nH]c(C(=O)N(CCc2ccccc2)Cc2ccccc2)c1C,2.22%
10,CN1CC(C(=O)Nc2ccc(F)c(Cl)c2)CC1=O (stereo not drawn),18.2%
11,CC(=O)Nc1ccc(S(=O)(=O)N(C)C2CCN(C)CC2)cc1,16.8%
12,O=C(NCc1cccc(F)c1)C1CCN(C(=O)c2sccc2-n2cccc2)CC1,0.676%
13,O=C(NCCN1CCOCC1)c1cccn2c(=O)c3c4c(sc3nc12)CCCC4,12.7%
14,O=C(CN1CCN(c2ccccc2)CC1)N1CCN(c2ccccc2)CC1,-14.1%
15,O=C1c2oc3ccccc3c(=O)c2C(c2cccnc2)N1Cc1ccco1 (stereo not drawn),1.1%
16,C1CCCN(C2CCNCC2)CC1.Cl,18.4%
17,COCCOC1CCN(C(=O)C2CCC(=O)N(CCc3ccc(OC)cc3)C2)CC1 (stereo not drawn),45.2%
18,O=C(c1ccc(CS(=O)(=O)c2ccc(Br)cc2)o1)N1CCCCCC1,-2.04%
19,Cc1ccnc(NC(=O)c2ccc(Cl)c(NC(=O)C(C)Oc3ccccc3)c2)c1 (stereo not drawn),7.95%
20,O=C(NCCc1ccccc1)C1CCC(=O)N(CCCN2CCCC2=O)C1 (stereo not drawn),10.1%
21,CN1C(=O)C2(OCCCO2)c2ccccc21,15%
22,CCc1nn(C(C)C(=O)N(C)Cc2ccccc2)c(=O)c2cc3occc3n12 (stereo not drawn),10.9%

row,Structure (SMILES),"hERG current change (%, negative = inhibition) at 1uM"
1,CCn1c(=O)n(CC)c2cc(S(=O)(=O)Nc3c(C)cccc3C)ccc21,3.07%
2,COc1cccc(-c2ncc3ccccn23)c1.O=C(O)C(=O)O,4.02%
3,O=C1CC(=O)N(c2ccccc2)N1c1ccccc1,3.73%
4,Cc1cc(C)c2sc(N(CCCN(C)C)C(=O)c3ccc(S(=O)(=O)N(C)C4CCCCC4)cc3)nc2c1.Cl,-32.9%
5,COc1ccc2nc(Nc3nc(C)c(CCC(C)C)c(=O)[nH]3)nc(C)c2c1,-1.85%
6,Cc1c(C(c2ccccc2)c2c(C)n(C)n(-c3ccccc3)c2=O)c(=O)n(-c2ccccc2)n1C,16.7%
7,COc1ccc(CCN(C(=O)C(F)(F)F)C(C(=O)NC2CCCCC2)c2ccc(C)s2)cc1 (stereo not drawn),9.22%
8,CN(C)c1cccc2c1C(=O)c1ccccc1C2=O,-0.24%
9,O=C(O)c1cccc(NC(=O)c2ccc3c(c2)C(=O)N(C2CCCCC2)C3=O)c1,5.48%
10,Cc1cccc(NS(=O)(=O)c2ccc(C(C)(C)C)cc2)n1,9.31%
11,Cc1ccc(Cl)c(NC(=O)CN2CCN(C=O)CC2)c1,7.72%
12,COc1cc([C@@H]2CC=C(C(=O)O)[C@H](c3ccc(F)cc3)N2S(=O)(=O)c2ccc(C)cc2)cc(OC)c1OC,7.14%
13,Fc1cccc(F)c1/C=N/NC(=S)Nc1cccnc1,-1.15%
14,CCOC(=O)c1ccc2c(c1)[n+](CC)c(C)n2-c1ccccc1.[I-],6.88%
15,CCOc1ccccc1N1CCN(C(=O)CN2C(=O)NC3(CCCC3)C2=O)CC1,5.03%
16,Cc1c(Cl)cnc(NC(=O)CSc2nncs2)c1Cl,7.35%
17,CCOC(=O)CC1(CC(=O)OCC)NC(=O)c2c(C)sc(C(=O)OCC)c2N1,13.7%
18,O=[N+]([O-])c1ccc(-c2cnc3ccccc3n2)cc1,14.8%
19,CCOC(=O)c1c(S(=O)(=O)NCC(=O)Nc2cc(C)ccc2OC)c(C)n(C)c1C,13.9%
20,COc1cccc(C2CCN(CC(=O)Nc3cc(Cl)ccc3OC)CC2O)c1 (stereo not drawn),10.7%
21,CC(C)c1ccc(N(CC(=O)N2CCN(Cc3ccccc3)CC2)S(C)(=O)=O)cc1,7.12%
22,Cc1ccc(F)cc1NC(=O)COC(=O)C1CCN(c2ccc(C(F)(F)F)cn2)CC1,21.6%

row,Structure (SMILES),"hERG current change (%, negative = inhibition) at 1uM"
1,CS(=O)(=O)N1CCC(C(=O)c2cccc(Cl)c2)CC1,6.61%
2,Cc1cccc(Cn2c(Sc3nc(C)cs3)nc3c2c(=O)[nH]c(=O)n3C)c1,9.26%
3,Cc1c(C(=O)N2CCOCC2)sc(NC(=O)Cc2ccccc2)c1C#N,-2.64%
4,CC1CCc2nc(NC(=O)CN3CCOCC3)sc2C1 (stereo not drawn),-0.437%
5,Cc1ccc(C)c(NS(=O)(=O)c2ccc(-c3cnc(C4CC4)o3)cc2)c1,13.2%
6,COc1ccc(NC(=S)N/N=C/c2cccn2Cc2ccc(F)cc2)cc1,12%
7,CC(=O)Nc1ccc(S(=O)(=O)N2CCSC2c2ccccc2Cl)cc1 (stereo not drawn),6.81%
8,Cc1ccc(S(=O)(=O)/N=C2/NC(=O)/C(=C/c3ccc(Br)o3)S2)cc1,22.4%
9,Nc1cc(=O)[nH]c(SCC(=O)Nc2cccc([N+](=O)[O-])c2)n1,8.82%
10,CC(=O)Nc1cccc(C(=O)OCc2ccc([N+](=O)[O-])cc2)c1,-13.5%
11,CC1CC(C)CN(C(=O)Cn2nnc(-c3ccccc3)n2)C1 (stereo not drawn),5.09%
12,CCOc1ccc(C(=O)Nc2ccc(S(=O)(=O)Nc3cc(C)on3)cc2)cc1,10.2%
13,Cc1nc(N)sc1-c1nnc(SCC(=O)Nc2nccs2)n1C,-5.29%
14,C[C@H](NC(=O)OCc1ccccc1)C(=O)N[C@@H](Cc1c[nH]c2ccccc12)C(=O)O (Cbz-Ala-Trp-OH),14.3%
15,COCCN1CCC(CNCc2cn[nH]c2-c2ccc(C)c(C)c2)C1 (stereo not drawn),13.5%
16,Cc1ccccc1C(=O)Nc1ccc(-c2nnc(SC(C)C(=O)O)n2C)cc1 (stereo not drawn),16.5%
17,Cc1ccc(-c2nn(-c3ccccc3)cc2/C=N/O)cc1,20.2%
18,O=C(NNc1cccc(Cl)n1)Nc1ccc(F)cc1,14%
19,CCOC(=O)N1CCN(C(=O)c2cccn3c(=O)c4sccc4nc23)CC1,-9.35%
20,COCC(=O)NC1CCN(S(=O)(=O)c2cccc(C(C)=O)c2)CC1,13.9%
21,Oc1[nH]c2ccc(Br)cc2c1N=Nc1ccc(F)cc1,17.2%
